# The campaign covered roughly 380,000 compounds. About 4,000 (1.1%) were called active. Inconclusive results, whose numbers are uncertain, are shown with a selection of clear calls. Calls come from the whole dose curve; as a rule, active = well fitted activation curve with a large enough effect; inconclusive = small, poorly fitted or top-dose-only effect; inactive = no such curve, though single readings can be large or run the other way. Potencies beside an inconclusive call are fits to weak or partial responses and may not hold up.
# Experiment: qHTS Assay to Identify Small Molecule Activators of BRCA1 Expression; note: nearly all actives have a fitted effect of over 80% in size
# Settings: MCF7-BRCA1-FFLuc reporter, luminescence, 48 h; activation: at 46.1 µM (top of the series), scaled: vehicle 0%, 10 µM genistein 100% unless noted
# Summary of the method: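 Activators of BRCA1 expression were detected as increased firefly luciferase luminescence in engineered MCF7 cells after 48 h compound incubation. Signals were scaled to genistein 10 microM as full activation.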
# Potency is the fitted concentration of half-maximal effect; tags give direction and shape of the fitted curve.
SMILES,activation,Potency
NC(=S)N/N=C/c1c(O)c(Br)cc2oc3c(c12)CCCC3,inactive: -47.6%,–
COc1ccc(C)cc1N1C(=N)/C(=C2/Nc3ccccc3S2)C(c2ccccc2)C1=O (centres undefined),inactive: -66.4%,–
CC(=O)c1ccc(N2CCN(c3ccc(C(N)=O)cc3[N+](=O)[O-])CC2)cc1,inactive: 13%,–
COC(=O)Cc1c(O)ccn(CCc2c[nH]c3ccc(OC)cc23)c1=O,–,"inconclusive: 35.5 µM [activator, single point]"
CC(=O)Nc1ccc(-c2csc(Nc3ncccn3)n2)cc1,–,active: 3.55 µM
COC(=O)CCC(=O)N1CCCC(CO)(Cc2ccccc2)C1 (centres undefined),–,"inconclusive: 35.5 µM [activator, single point]"
CCN1CCN(c2ccc(NC(=O)c3ccc(Cl)c(S(=O)(=O)N4CCCC4)c3)cc2)CC1,inactive: -8.91%,–
CCOC(=O)C1(Cc2cccc(Cl)c2)CCCN(C(=O)c2ccnn2C)C1 (centres undefined),inactive: 15.7%,–
Cc1cc2c(C)nc(N/N=C/c3ccccc3)nc2o1,–,"inconclusive: 6.31 µM [activator, partial curve, poor fit]"
COc1ccc(OC(=O)c2cc3ccccc3o2)cc1,inactive: 6.27%,–
COc1ccc(/C=N/OCc2ccccc2C#N)c(OC)c1,–,"inconclusive: 7.08 µM [activator, partial curve, poor fit]"
CN1OC[C@@H]2CN(C(=O)C(C)(C)C)[C@H](c3cccc(Oc4ccccc4)c3)C[C@@H]21,inactive: -2.6%,–
O=C(COc1ccccc1)Nc1cccc(-c2nc3ccccc3[nH]2)c1,–,"inconclusive: 12.6 µM [activator, partial curve, poor fit]"
O=C(O)c1ccccc1NS(=O)(=O)c1cccc(NS(=O)(=O)c2cc(Br)ccc2Br)c1,inactive: 3.44%,–
CC(C(=O)c1ccccc1)[n+]1cccc(Cl)c1 (centres undefined),–,"inconclusive: 17.8 µM [activator, partial curve, poor fit]"
Cc1ccccc1-c1coc2cc(O)ccc2c1=O,–,"inconclusive: 22.4 µM [activator, single point]"
C[C@@H]1C(NC(=O)c2ccccc2)CC2CC1C2(C)C (some centres undefined),inconclusive: 106% [activator],–
CCOc1ccc(N(CC(=O)NCc2ccccc2OC)S(C)(=O)=O)cc1,–,"inconclusive: 12.6 µM [activator, partial curve, poor fit]"
CCCCOc1ccc(CSc2nncn2N)cc1,–,"inconclusive: 12.6 µM [activator, partial curve, poor fit]"
CCOc1ccccc1NC(=O)N1CCC(C(=O)c2ccc(F)cc2)CC1,inactive: 1.82%,–
O=C(N/N=C1\CCCCc2ccccc21)c1ccccn1,–,active: 12.6 µM
O=C(COc1ccc2ccccc2c1Br)N1CCCCC1,–,"inconclusive: 31.6 µM [activator, single point]"
Cc1nc(-c2c(C(F)(F)F)noc2-c2ccc(O)cc2O)cs1,inactive: -60.9%,–
O=C(c1ccco1)N1CCN(Cc2ccc(F)cc2Cl)CC1,–,"inconclusive: 12.6 µM [activator, partial curve, poor fit]"
Cc1ccc(/C=C/C2=NN(C)C(=O)CC2)cc1,–,"inconclusive: 2 µM [activator, partial curve, poor fit]"

SMILES,activation,Potency
O=C(NCc1ccccn1)c1cc(Cl)ccc1OCc1ccccc1,inactive: -34.5%,–
CC(=O)c1ccc(NC(=O)CSc2nccn2C)cc1,–,active: 11.2 µM
CCC(=O)N1CCN(c2nc3ccccc3s2)CC1,–,"inconclusive: 2.82 µM [activator, partial curve, poor fit]"
CS(=O)(=O)c1cccc(C(=O)Nc2ccc(S(=O)(=O)N3CCCCC3)cc2)c1,inactive: -30.9%,–
Cc1nc(-c2ccc(C(=O)Nc3ccccc3F)cc2)cs1,–,active: 10 µM
CCOC(=O)c1c(C)oc2c1c1c(c3ccccc32)OCN(Cc2ccccn2)C1,–,"inconclusive: 31.6 µM [activator, single point]"
C=CCNc1nc(-c2ccc(Cl)cc2)cs1,–,"inconclusive: 2.51 µM [activator, partial curve, poor fit]"
O=C(Nc1ccc(N2CCN(C(=O)c3ccco3)CC2)cc1)c1ccc(Br)cc1,inactive: -10.8%,–
Cc1ccc(CS/C(Nc2ccccc2C)=C(\C#N)C(=O)NCc2ccco2)c(C)c1,inactive: -15.3%,–
COc1ccc(OC)c(NC(=O)c2cn(C)c(=O)c3cc(OC)c(OC)cc23)c1,inactive: -23.7%,–
Cc1ccc2c(c1)COc1c3ccc(C(=O)NCC4CC4)cc3nn1-2,–,"inconclusive: 0.501 µM [activator, full curve, poor fit]"
Cc1cc(C(=O)COC(=O)C23CC4CC(CC(O)(C4)C2)C3)c(C)n1C,–,"inconclusive: 2.24 µM [activator, full curve, poor fit]"
COc1ccc2[nH]c(=O)c(CN(C3CCCCC3)C(c3nnnn3Cc3ccco3)C(C)C)cc2c1 (centres undefined),inactive: -58.5%,–
CC(C)OC(=O)c1ccc(NC(=O)C2C3CC4OC(=O)C2C4C3)cc1 (centres undefined),–,active: 7.08 µM
Cn1/c(=N/N=C/c2ccccn2)sc2ccccc21,–,"inconclusive: 2 µM [activator, partial curve, poor fit]"
CCCCCc1ccc(-c2ccc(C(=O)O)cc2)nc1,inconclusive: -76.1% [activator],–
Cc1ccc(/C=N/n2c(COc3ccccc3)n[nH]c2=S)o1,inactive: -1.02%,–
CN(C)c1ccc(C=NNC(=S)Nc2ccc(F)cc2)cc1,–,active: 3.98 µM
O=C(CSCc1ccccc1)N1CCN(c2ccccc2)CC1,–,active: 11.2 µM
CCc1ccc(OCc2ccc(C(=O)NCc3ccccn3)o2)cc1,–,"inconclusive: 17.8 µM [activator, partial curve, poor fit]"
CC(=O)NCCc1nc2cc(NC(=O)c3ccc([N+](=O)[O-])cc3)ccc2n1C,–,active: 6.31 µM
COc1ccc2nc(NC(=O)CSc3ccccc3)sc2c1,–,active: 10 µM
CCC(=O)Nc1ccc(C(=O)CSc2nnc(-c3ccccc3F)n2C2CC2)cc1,–,"inconclusive: 31.6 µM [activator, single point]"
Cc1cc(C)c(NC(=O)NC(=O)c2cccc(F)c2)c(C)n1,–,"inconclusive: 35.5 µM [activator, single point]"
